# About 4,700 (1.2%) of roughly 390,000 compounds were called active. This list was built around the results that the source calls inconclusive (neither active nor inactive); the mix of calls is not that of the screen. Calls come from the whole dose curve; as a rule, active = well fitted inhibition curve with a large enough effect; inconclusive = small, poorly fitted or top-dose-only effect, or another doubt; inactive = no such curve, though single readings can be large or run the other way. Potencies beside an inconclusive call are fits to weak or partial responses and may not hold up. *1 amine or outer side, *2 acyl side, *3 side chain or, on linkers, in order; H or OH if unused. Where a SMILES comes first, the peptide text is derived from it. Bridges are numbered along the chain shown (N, C = ends). [ ]: non-standard residue; d: D form. ξ: configuration not given here. hSer(Ph(2-I,4-NO2,6-CO)) = O=C([C@H](CCOc1c(I)cc([N+](=O)[O-])cc1C(=O)[*:3])N[*:1])[*:2]; ξD = NC(CC(=O)O)C(=O)O
# Biological target: DNA polymerase eta (Homo sapiens) (UniProt Q9Y253)
# UniProt Q9Y253, sequence (Q9Y253 whole entry, looked up): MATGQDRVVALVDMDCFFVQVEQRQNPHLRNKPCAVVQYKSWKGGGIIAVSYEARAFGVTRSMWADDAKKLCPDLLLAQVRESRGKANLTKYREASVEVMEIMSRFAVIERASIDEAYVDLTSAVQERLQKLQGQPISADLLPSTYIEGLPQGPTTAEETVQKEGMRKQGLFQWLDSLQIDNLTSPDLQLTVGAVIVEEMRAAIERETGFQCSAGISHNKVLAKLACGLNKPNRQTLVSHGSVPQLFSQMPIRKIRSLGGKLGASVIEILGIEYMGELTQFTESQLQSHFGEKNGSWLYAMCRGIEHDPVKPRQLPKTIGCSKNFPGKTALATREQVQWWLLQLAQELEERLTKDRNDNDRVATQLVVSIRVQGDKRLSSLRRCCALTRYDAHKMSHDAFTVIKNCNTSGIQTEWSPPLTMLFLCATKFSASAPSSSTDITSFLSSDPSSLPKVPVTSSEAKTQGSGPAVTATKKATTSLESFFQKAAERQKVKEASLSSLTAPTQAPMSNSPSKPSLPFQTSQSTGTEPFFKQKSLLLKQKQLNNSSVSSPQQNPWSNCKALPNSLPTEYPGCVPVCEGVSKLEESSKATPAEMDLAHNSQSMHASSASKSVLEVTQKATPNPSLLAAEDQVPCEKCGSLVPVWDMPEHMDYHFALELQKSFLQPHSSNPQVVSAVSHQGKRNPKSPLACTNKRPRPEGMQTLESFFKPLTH
# Experiment: qHTS for Inhibitors of Polymerase Eta
# Conditions: recombinant Pol eta, fluorescent DNA replication assay; series mostly up to 114 µM
# In short: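 Pol eta at 10 nM preincubated with compounds 15 min at room temperature; reaction started with fluorescent substrate (50 nM final) and read kinetically at 0 and 10 min.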
# Potency is the fitted concentration of half-maximal effect; tags give direction and shape of the fitted curve.
row,SMILES,Potency
1,CCOC(=O)C1=C(C)NC2=C(C(=O)CCC2)C1c1ccc(O)c(OCC)c1 (stereo unspecified),inactive
2,Cc1oc2c(C)c3oc(=O)c(CC(=O)N[C@@H](CCCNC(N)=O)C(=O)O)c(C)c3cc2c1C,"inconclusive: 39.8 µM [inhibitor, single point]"
3,COC(=O)Cn1c(=O)c2c(n(Cc3ccccc3)c1=O)N/C(=C/c1ccc(Br)cc1)C2=O,"inconclusive: 79.4 µM [inhibitor, partial curve, poor fit]"
4,CN(Cc1cnn(-c2ccccc2)c1)C(=O)C1CCC(=O)N(C2CC2)C1 (stereo unspecified),inactive
5,Cc1ccc2[nH]c(=O)c(C(c3nnnn3C(C)(C)C)N(Cc3ccco3)CC3CCCO3)cc2c1 (stereo unspecified),inactive
6,COc1ccccc1/C=C/C=N/NC(=O)Cc1cccn1C,"inconclusive: 20 µM [inhibitor, partial curve, poor fit]"
7,O=C(NCCc1ccccc1)c1cnc2sc(N3CCCCC3)nn2c1=O,inactive
8,O=C(c1cc2ncc(Br)cn2n1)N1CCN(C(=O)c2ccco2)CC1,active: 12.6 µM
9,COc1cc(C(=O)OCC(=O)NCc2ccco2)cc(OC)c1OC,"inconclusive: 25.1 µM [inhibitor, partial curve]"
10,Cc1ccc2cc(CN(c3cccc(C)c3C)S(=O)(=O)c3ccccc3)c(=O)[nH]c2c1,inactive
11,O=C1O/C(=C/c2ccccc2)c2ccccc21,"inconclusive: 0.199 µM [inhibitor, partial curve, poor fit]"
12,COc1ccc(NC(=O)c2cncn2-c2ccccc2)cc1,"inconclusive: 2 µM [inhibitor, partial curve, poor fit]"
13,Cc1ccccc1C(=O)N1c2ncnn2C2(CCCCC2)[C@@H]2CCCC[C@@H]21,inactive
14,COc1ccc(/C=N/N2C(=O)CSC2=S)cc1Br,"inconclusive: 22.4 µM [inhibitor, partial curve, poor fit]"
15,COc1ccc(-c2onc3ccc(C(=O)/C=C/N(C)C)cc23)cc1,"inconclusive: 31.6 µM [inhibitor, full curve]"
16,O=C(O)c1c2c(nc3ccc(S(=O)(=O)N4CCC(C(=O)N5CCCCC5)CC4)cc13)CCCC2,active: 31.6 µM
17,Cc1nc2[nH]c(=S)[nH]c(=O)c2nc1C,"inconclusive: 15.8 µM [inhibitor, full curve, poor fit]"
18,COc1ccccc1NC(=O)C1=C(C)Nc2nc(-c3ccco3)nn2C1c1ccccc1F (stereo unspecified),inactive
19,Cc1cnc(C(=O)Nc2cccc(S(=O)(=O)N(C)C)c2)cn1,"inconclusive: 22.4 µM [inhibitor, single point]"
20,O=C(c1ccc(COc2ccc(F)cc2)o1)n1cc(Br)cn1,active: 79.4 µM
21,CCc1ccc(NC(=O)C(Cc2ccccc2)NS(=O)(=O)c2ccc3c(c2)c(=O)n(C)c(=O)n3C)cc1 (stereo unspecified),inactive

row,SMILES,Potency
1,CCn1c(SCC(=O)Nc2ccc3c(c2)c2ccccc2n3CC)nnc1-c1ccco1,active: 25.1 µM
2,On1onc2c3cc(-c4ccccc4)nc3ccc21,"inconclusive: 31.6 µM [inhibitor, partial curve, poor fit]"
3,COc1ccc(/C=C2\SC(=S)N(CCC(=O)Nc3cccc(C(=O)O)c3)C2=O)cc1,"inconclusive: 50.1 µM [inhibitor, partial curve]"
4,O=[N+]([O-])c1cc(S(=O)(=O)Nc2ccccc2)ccc1Nc1ccccc1,"inconclusive: 28.2 µM [inhibitor, partial curve, poor fit]"
5,COc1ccc(OC)c(/C=c2\sc3nc(-c4cccs4)nn3c2=O)c1,"inconclusive: 17.8 µM [inhibitor, partial curve, poor fit]"
6,O=C(CCc1ccccc1)NNC(=O)c1ccc(NC(=O)c2ccccc2)cc1,"inconclusive: 79.4 µM [inhibitor, partial curve, poor fit]"
7,O=C(CCS(=O)(=O)c1cc(Br)cc2c1N(C(=O)C1CC1)CC2)NCc1ccco1,"inconclusive: 15.8 µM [inhibitor, partial curve]"
8,CC(C)(C)OC(=O)N1CCC(CC2CC(c3ccccc3)=NO2)(C(=O)NCc2ccccc2)CC1 (stereo unspecified),"inconclusive: 44.7 µM [inhibitor, partial curve, poor fit]"
9,O=C(COC(=O)c1ccc([N+](=O)[O-])s1)Nc1ccc(F)cc1,"inconclusive: 44.7 µM [inhibitor, partial curve]"
10,CC(C)NC(=O)N1CCC(c2nc3ccccc3s2)CC1,"inconclusive: 31.6 µM [inhibitor, single point]"
11,Cc1cccc(NC(=O)c2sc3nc(-c4cc5ccc(O)cc5oc4=O)[nH]c(=O)c3c2C)c1,"inconclusive: 6.31 µM [inhibitor, full curve, poor fit]"
12,COc1cccc(NC(=O)CNc2cc(S(=O)(=O)N3CCOCC3)ccc2N2CCCC2)c1,"inconclusive: 100 µM [inhibitor, partial curve, poor fit]"
13,COc1ccc(-c2noc(C)c2-c2ccc3ccccc3n2)c(O)c1,"inconclusive: 79.4 µM [inhibitor, partial curve, poor fit]"
14,Cc1ccc2nc(Nc3nc(C)cc(-c4ccccc4)n3)[nH]c(=O)c2c1,"inconclusive: 14.1 µM [inhibitor, full curve, poor fit]"
15,COc1cc(/C=N/NC(=O)c2ccc(-c3ccccc3)cc2)cc(OC)c1OC,"inconclusive: 8.91 µM [inhibitor, full curve, poor fit]"
16,COc1cc(/C=C2\SC(=Nc3cccnc3)NC2=O)cc(OC)c1OC,"inconclusive: 39.8 µM [inhibitor, partial curve, poor fit]"
17,"NC(=O)C(CC(=O)O)NC(=O)[C@@H]1CCOc2c(I)cc([N+](=O)[O-])cc2C(=O)N[C@@H](CCC(=O)O)C(=O)N[C@@H](CO)C(=O)N1 (stereo partly specified) (ES[hSer(Ph(2-I,4-NO2,6-CO))][ξD]-NH2; lactam N-3)","inconclusive: 22.4 µM [inhibitor, full curve, poor fit]"
18,O=C(Nc1cccc(F)c1)c1cc(-c2ccco2)nc2ccccc12,"inconclusive: 35.5 µM [inhibitor, full curve]"
19,COc1ccc(CNC(=O)C2CCCN(c3nnc(C)c4c(C)n(-c5ccc(C)cc5)nc34)C2)cc1 (stereo unspecified),"inconclusive: 89.1 µM [inhibitor, single point]"
20,Cc1[nH][nH]c(=O)c1C(c1ccc(-c2cccc(Cl)c2)o1)c1c(C)[nH][nH]c1=O,active: 79.4 µM
21,CC(=O)c1ccc(S(=O)(=O)N2Cc3ccccc3CC2C(=O)O)cc1 (stereo unspecified),active: 5.01 µM

row,SMILES,Potency
1,Cc1cc2c(cc3c(SCC(=O)Nc4ccc(Cl)cc4F)nncn32)o1,"inconclusive: 89.1 µM [inhibitor, partial curve, poor fit]"
2,CC(C)CNC(=O)COC(=O)c1c2c(nc3ccccc13)/C(=C/c1cccs1)CC2,"inconclusive: 20 µM [inhibitor, partial curve, poor fit]"
3,CN=C(c1ccco1)n1c(=S)nc(-c2ccco2)n(C)c1=S,"inconclusive: 25.1 µM [inhibitor, full curve, poor fit]"
4,O=C(COc1ccccc1F)Nc1ccc(OCc2cc(=O)n3ccccc3n2)cc1,"inconclusive: 89.1 µM [inhibitor, single point]"
5,Cc1ccc(-n2c(SCc3ccc(C(=O)O)cc3)nnc2-c2ccncc2)cc1,inactive
6,O=C(CN1CCN(c2ccccc2F)CC1)NCc1ccccc1,"inconclusive: 112 µM [inhibitor, partial curve, poor fit]"
7,COc1ccc(-c2cc3ccc(OCc4nn[nH]n4)cc3oc2=O)cc1,active: 17.8 µM
8,O=C(COc1ccccc1F)Nc1ccc(S(=O)(=O)NCc2ccco2)cc1,inactive
9,FC(F)(F)c1ccccc1/C=N/n1c(C2CCCCC2)n[nH]c1=S,"inconclusive: 39.8 µM [inhibitor, single point]"
10,CC[C@@H]1Cc2cc(O)ccc2C2=C1c1ccc(O)cc1C[C@H]2CC,"inconclusive: 100 µM [inhibitor, partial curve, poor fit]"
11,CC1(C)Cc2c(C#N)c(N)sc(=S)c2CS1,"inconclusive: 10 µM [inhibitor, partial curve, poor fit]"
12,COc1ccc(-c2nn(-c3ccccc3)cc2C2NC(=O)NC(C)=C2C(=O)OC(C)C)cc1OC (stereo unspecified),"inconclusive: 79.4 µM [inhibitor, partial curve, poor fit]"
13,COc1ccc2c(c1)c1c(c(=O)n(-c3cccc(C)c3)c(=O)n1Cc1cccc(Cl)c1)n2C,inactive
14,Cc1ccc(-n2nc(C)c3c(C)cc(=O)n(CC(=O)Nc4cccc(C)c4C)c32)cc1,"inconclusive: 100 µM [inhibitor, partial curve, poor fit]"
15,Cc1sc2nc3c(SC(C)C(=O)O)cc(C(=O)c4ccccc4O)cn3c(=O)c2c1C (stereo unspecified),"inconclusive: 15.8 µM [inhibitor, full curve, poor fit]"
16,O=C(COC(=O)c1ccccc1NCc1ccco1)Nc1ccc2c(c1)OCO2,"inconclusive: 28.2 µM [inhibitor, single point]"
17,CCOCCCNC(=O)c1cc(C)nn1-c1ccccc1,"inconclusive: 79.4 µM [inhibitor, partial curve, poor fit]"
18,CN(C)C(CNC(=O)c1cccc(OC(F)F)c1)c1ccco1 (stereo unspecified),"inconclusive: 20 µM [inhibitor, partial curve, poor fit]"
19,COc1ccc(-c2[nH]ncc2CN2CCCC2c2nonc2C)c(F)c1 (stereo unspecified),"inconclusive: 25.1 µM [inhibitor, partial curve, poor fit]"
